Source: patent publication US20200353078A1

Key:
[1] = target: T1, Human IL-33 Flag®His (human); assay: HTRF IL-33:ST2 binding assay, single point, unpurified scFv periplasmic extract at 50% v/v; blocked ligand human ST2-Fc; total binding wells 98-102, non-specific binding wells 0
T1 sequence: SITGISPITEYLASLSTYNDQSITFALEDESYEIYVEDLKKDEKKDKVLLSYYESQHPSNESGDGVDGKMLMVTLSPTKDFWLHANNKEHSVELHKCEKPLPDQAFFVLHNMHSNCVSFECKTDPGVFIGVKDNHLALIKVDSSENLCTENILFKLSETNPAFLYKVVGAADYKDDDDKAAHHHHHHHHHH

[2] = target: T1, Human IL-33 Flag®His (human); assay: HTRF competition: purified scFv titrated against human ST2-Fc for FLAG-His human IL-33

B1: IL330004 scFv (scFv, part only; not given: linker, domain order and tags, V domains shown, not shown: another chain or arm of the molecule; small tags and cut ends)
VH: [about 100 residues not listed]ESYYDFWSGQYYFDYWGQGTMVTVSS
VL: SYELTQPPSVSVSPGQTASISCSGDKLGDKFASWYQQKPGQSPVLIIYQDRKRPSGIPERFSGSNSGNTATLTISGTQTTDEADYYCQAWDGSLYVFGTGTKLTVL
Which results are given for B1?
% Specific Binding [1]: 81%; IC50 (read off the curve) [2]: 40 nM
